Data published in PubChem BioAssay AID493208 (National Center for Advancing Translational Sciences (NCATS), 2011).
About 340 (0.77%) of roughly 44,000 compounds were called active. Not shown: some 5% with an inconclusive outcome. The call rests on the fitted dose curve; in most records, active means well fitted inhibition curve with a large enough effect; inconclusive means small, poorly fitted or top-dose-only effect; inactive means flat fitted curve, though single readings scatter. The list shows a part of the results.

Experiment: Acumen qHTS Assay for Inhibitors of the mTORC1 Signaling Pathway in MEF (Tsc2-/-, p53-/-) Cells: Sytravon;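 further: plate controls were DMSO for no effect and rapamycin for full effect; nearly all actives have a fitted effect of over 50% in size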
Conditions: phospho-rpS6 immunofluorescence/PI, 24 h; series mostly up to 38.3 µM; activity change, negative = inhibition: at the top concentration
Summary of the method: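 Tsc2-/-, p53-/- MEFs (empty-vector stable line) in DMEM + 10% FBS were treated with compounds 24 h at 37 degree Celsius, fixed, and immunostained for phospho-rpS6 (Alexa-488) with propidium iodide counterstain. Laser-scanning cytometry gave % positive cells, normalized against 7.5 nM rapamycin and DMSO.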

Activity change, negative = inhibition, inactive:
CCCCN(Cc1ccccc1)S(=O)(=O)c1cc(Br)cc2c1N(C(=O)C1CC1)CC2 0.237%
CCOC(=O)N1CCC(NC(=O)c2ccc3c(c2)N(Cc2ccccc2)C(=O)c2ccccc2S3=O)CC1 (stereo unspecified) -17.5%
CC(=O)C1=C(c2ccc(Cl)c(Cl)c2)N(C(C)=O)n2c(nnc2C2CCCCC2)S1 -5.12%
O=C(CCc1nnc2n(Cc3ccccc3Cl)c(=O)c3ccccc3n12)Nc1ccc(F)cc1 -11.8%
CCCNC(=O)CCn1nc(-c2ccccc2)c2ccccc2c1=O 3.06%
O=C(CSc1nnc(CNC(=O)c2ccccc2F)n1-c1ccccc1)Nc1ccccc1F -0.493%
Cc1ccc(S(=O)(=O)c2cnc(SC(C)C(=O)Nc3ccccc3)[nH]c2=O)cc1 (stereo unspecified) -1.76%
CCC(Cn1nnc2ccccc2c1=O)NC(=O)Nc1ccc(C)cc1 (stereo unspecified) -0.116%
CCOc1ccc(OCC)c(NC(=O)c2cc(CN3CCOCC3)on2)c1 7.45%
CCOC(=O)C1CCCN(C(=O)c2cccc(NC(=O)c3nsc4ccccc34)c2)C1 (stereo unspecified) -9.57%
Cc1ccc(NC(=O)CCNS(=O)(=O)c2ccc(Br)s2)cc1 -0.511%
COc1cc(C2C(=O)N(C3CCCCCC3)CC(=O)N2CCC2=CCCCC2)ccc1OC(C)C (stereo unspecified) 8.84%
O=C(NCCS(=O)(=O)N1CCN(c2ccccc2F)CC1)C(c1ccccc1)c1ccccc1 3.37%
O=C(Nc1ccccc1Cl)c1cc(S(=O)(=O)N2CCC3(CC2)OCCO3)ccc1F 7.81%
Cc1ccc(-c2nc(NC(=O)CSc3ncnc4sc5c(c34)CCC(C)C5)ns2)cc1 (stereo unspecified) 9.46%
CCn1cc2nc(SCc3ccccc3Cl)n(CCc3ccccc3)c(=O)c2n1 -5.43%
COc1ccc(-n2cc(C(=O)OCc3ccc(F)c(F)c3)c3ccccc3c2=O)cc1 -4.99%
CCc1ccc(NS(=O)(=O)c2ccc3[nH]cc(C(=O)NCCc4cccc(C)c4)c(=O)c3c2)cc1 0.184%
Cc1cccc(N2CCN(C(=O)CCc3c(C)nc4c(c3C)c(=O)n(C)c(=O)n4C)CC2)c1C 1.07%
Cc1ccc(OC(=O)c2cc(-c3ccc(Cl)cc3)on2)c(C)c1 -3.63%
O=C(NC1(C(F)(F)F)C(=O)Nc2c1c(=O)[nH]c(=O)n2-c1ccc(F)cc1)c1ccccc1 (stereo unspecified) 9.98%
COc1ccc(C2C(=O)N(C3CCCCC3)CC(=O)N2CCC2=CCCCC2)cc1 (stereo unspecified) 7.93%
CCOc1ccc(-n2c(=O)c3sc4ccccc4c3n(Cc3cccc(C)c3)c2=O)cc1 -13.5%
CC1CCC(NC(=O)c2ccc3c(c2)N(Cc2ccccc2F)C(=O)c2ccccc2S3=O)CC1 (stereo unspecified) 0.919%
CCOc1ccc(CCNC(=O)Cn2ncn3c(cc4sc(C)cc43)c2=O)cc1OCC 0.42%
COc1ccc2c(c1)sc1ncc(C(=O)NCc3ccc(Cl)cc3)c(=O)n12 -1.91%
CCN1CCN(c2oc(/C=C/c3ccc(OC)c(OC)c3)nc2C#N)CC1 -10.5%
O=C(NCc1ccccc1)C(=O)NCC(c1ccc2c(c1)OCO2)N1CCOCC1 (stereo unspecified) -6.98%
Clc1ccc(-c2cn3ncsc3n2)cc1 -7.5%
COc1cccc(CNC(=O)C(NS(=O)(=O)c2cccs2)C(C)C)c1 (stereo unspecified) -7.78%
COc1cccc(CNC(=O)c2ccc3nc(N4CCCCC4)sc3c2)c1OC -0.0621%
COc1ccccc1NC(=O)c1cc(S(=O)(=O)NCCc2ccccc2)ccc1F -4.31%
Cc1ccc(CN2CCSc3ccc(C(=O)N4CCN(c5ccc(Cl)cc5)CC4)cc32)cc1 2.85%
CCCCN1C(=O)c2[nH]nc(-c3ccccc3O)c2C1c1cc(Br)c(O)c(OC)c1 (stereo unspecified) 3.4%
O=c1c2cccnc2n(Cc2ccccc2F)c(=O)n1Cc1ccc(F)cc1 -4.43%
COc1ccc(NC(=O)Cn2c3ncccc3c(=O)n2-c2ccc(C)c(C)c2)c(OC)c1 8.48%
O=S(=O)(Nc1ccc2nc(-c3ccc(F)cc3)oc2c1)c1ccccc1 -7.33%
CCOCCCNC(=O)C(c1ccc(OC)cc1)N(Cc1ccc2c(c1)OCO2)C(=O)c1ccc(NC(C)=O)cc1 (stereo unspecified) 2.36%
CCCCc1nn2c(=O)cc(COC(=O)c3ccc(NC(=O)c4ccccc4Cl)cc3)nc2s1 2.31%
Cc1nnc(NC(=O)CSc2nc3c([nH]c4ccccc43)c(=O)n2-c2ccc(Cl)cc2)s1 -1.03%
CC(=O)Nc1cc(C(=O)NCc2ccccc2Cl)ccc1Sc1ccc(F)cc1 10.9%
Cc1cc(C)cc(NC(=O)c2cc(S(=O)(=O)NCCC3=CCCCC3)ccc2F)c1 0.759%
Cc1ccc(NC(=O)c2cc(S(=O)(=O)N3CCCCC3)c[nH]2)cc1N(C)C -5.02%
Cc1cccc(C(=O)Nc2ccc3oc(-c4cccc5c(Br)cccc45)nc3c2)c1 3.58%
COc1ccc(CCNCc2c(C(=O)O)c(C)n(Cc3c(F)cccc3Cl)c2C)cc1OC -6.19%
Cc1cc(OCC(=O)Nc2ccc(C(=O)OC3CCCCC3)cc2)cc(C)c1Cl 10.6%
COc1ccc2c(c1)CC(C(=O)NCc1ccc(F)cc1)CO2 (stereo unspecified) -0.786%
CCc1ccc(NC(=O)C2CCN(c3nc(-c4ccc(OC)cc4)no3)CC2)cc1 7.02%
CCOc1ccc2nc(N3CCN(C(=O)c4ccc5c(c4)CCCC5)CC3)sc2c1 2.03%
Cc1ccc2c(c1)C(=O)OC(C(=O)Nc1ncc(Cc3ccccc3Cl)s1)C2 (stereo unspecified) -3.91%
Cc1ccc(-c2cc(-c3ccc4c(c3)NC(=O)CO4)nc3c2COc2ccccc2-3)cc1 5.04%
COc1ccc2c(c1)c1c(c(=O)n(-c3ccc(F)c(Cl)c3)c(=O)n1Cc1cccc(C)c1)n2C -3.19%
Cc1ccc(C(=O)Nc2c(C(=O)NC(C)(C)C)oc3ccccc23)cc1 -1.49%
CCOc1ccc2c(c1)c(=O)c(C(=O)c1ccccc1)cn2Cc1ccccc1 -16.9%
Cc1c(CCC(=O)NCCc2ccccc2)c(=O)oc2cc(O)ccc12 4.63%
CCCS(=O)(=O)c1nc(S(=O)(=O)c2ccc(C)cc2)c(N(CC)CC)s1 -0.967%
CCOC(=O)c1ccc(NC(=O)CSc2c(C(C)C)cnc3c2c(=O)n(C)c(=O)n3C)cc1 0%
Cc1ccc(-n2nc(C)c3nc(CCC(=O)Nc4cccc(C)c4C)c(=O)n(C)c32)cc1 0%
Cc1cc(C)c2c(CC(=O)Nc3ccc(F)cc3)coc2c1 -11.3%
COc1ccc(CNC(=O)Cn2nc3c(cc2=O)CCCC3)cc1 -1.24%
Cc1cccc(N2C(=O)N(Cc3cc(=O)n4ccccc4n3)c3ccccc3S2(=O)=O)c1 -4.85%
COc1ccc(C(=O)N2CCN(c3nc4c(C)c(Cl)ccc4s3)CC2)c(OC)c1 3%
CCOc1ccc(NC(=O)CN(C)S(=O)(=O)c2ccc3[nH]c4c(c3c2)CCCC4)cc1 -0.312%
Cc1cc(-c2ccc(S(=O)(=O)Nc3cccc(Cl)c3C)cc2)on1 -11.5%
Cc1ccc(Cl)cc1N1CCN(C(=O)C2CCCN(Cc3nc(-c4cccc(Cl)c4)oc3C)C2)CC1 (stereo unspecified) -17.9%
CCCCNc1nc2c(c(=O)n(Cc3ccccc3)c(=O)n2C)n1C -10.1%
COc1ccc(N(C)C(=O)c2cc3c(s2)-c2ccccc2OC3)cc1 -5.65%
Cc1cc(C(=O)Nc2cccc(C)c2C)c2c(C)nn(-c3cccc(F)c3)c2n1 -2.62%
COc1cc(OC)c(OC)cc1/C=C/c1nc2ccccc2c(=O)n1-c1ccc(Br)c(C)c1 7.62%
O=C(c1ccc(Cl)cc1)c1cn(Cc2ccccc2)c2cc3c(cc2c1=O)OCCO3 2.21%
Cc1ccc(NC(=O)Cn2c(=O)ccc3cc(S(=O)(=O)N4CCCC4)ccc32)cc1N(C)C -18.8%
O=C(NCc1ccc(Cl)cc1)c1ccc2c(c1)N(Cc1ccccc1F)C(=O)c1ccccc1S2=O (stereo unspecified) -13.1%
CCc1ccc(CNC(=O)c2ccc(CS(=O)(=O)Cc3cccc(C)c3)o2)cc1 11.7%
CC(=O)Nc1ccc(S(=O)(=O)N(Cc2ccccc2)Cc2ccccc2)cc1 0.603%
CCOc1ccccc1-c1nc(C(N)=O)c2c(n1)n(-c1ccc3c(c1)OCO3)c(=O)n2C 6.47%
CCn1c(=O)cc(SCC(=O)NCc2ccc(C)cc2)c2ccccc21 -3.56%
C=Cc1ccc(Cn2c(=O)n(CC3CCC(C(=O)NC(C)C)CC3)c(=O)c3sccc32)cc1 (stereo unspecified) 0.918%
O=C(NCc1ccco1)c1ccc2c(c1)N(Cc1ccccc1F)C(=O)c1ccccc1S2(=O)=O -4.11%
CCCCNC(=O)c1ccc2c(c1)NC(=O)C(CS(=O)(=O)Cc1ccc(F)cc1Cl)N2 (stereo unspecified) -10.7%
COc1cccc(NC(=O)CCN2CCN(CCO)CC2)c1 10%
COc1cccc(-c2ccc3c(N)c(C(=O)Nc4ccccc4C)sc3n2)c1 0.441%
CC(C)CCNC(=O)c1ccc2c(c1)nc1n2CCCCC1 0%
CCCC(=O)Nc1ccc2nc(SCc3ccc(C)cc3)sc2c1 -14.5%
COCCNc1ccc(-c2nc(-c3ccccn3)no2)cc1[N+](=O)[O-] 2.04%
Nc1ccc2oc(Cc3ccc(Cl)cc3)nc2c1 -1.85%
COc1ccc(C)cc1NC(=O)Cc1c(C(=O)O)c(C)cn1C -1.69%
CC(=O)c1cccc(NC(=O)CSc2nc3c(=O)n(C)c(=O)n(C)c3n2C)c1 0.327%
CC(C)CCn1c(=O)c2sccc2n2c(CCCC(=O)NC(C)c3ccccc3)nnc12 (stereo unspecified) -0.899%
Cc1cccc(OCC(=O)Nc2ccccc2C(=O)OCc2cc(=O)n3nc(C4CC4)sc3n2)c1 0%
Cc1cccc(N2CCN(c3nc4ccccc4c4nc(-c5cccnc5)nn34)CC2)c1C -4.17%
Cc1ccc(CCNC(=O)c2cc3c(=O)n(C)c4ccccc4c3n2C)cc1 8.4%
Cc1ccc2cc3cc(C(=O)N(C)c4ccccc4C)oc3nc2c1 -9.34%
CCc1cccc(N2C(=O)N(Cc3c(F)cccc3Cl)c3ccccc3S2(=O)=O)c1 1.47%
CCn1cc(C(=O)Nc2ccc(C(C)C)cc2)c2cc(OC)c(OC)cc2c1=O 0.131%
CCc1cnc2c(c1SCCC(C)C)c(=O)n(C)c(=O)n2C 0.327%
CCOC(=O)c1ccc(NC(=O)c2c(NCc3cc(OC)ccc3OC)sc3c2CCC3)cc1 -6%
